Laboratory results taken from ChEMBL document CHEMBL4888484, “Replenishing the malaria drug discovery pipeline: Screening and hit evaluation of the MMV Hit Generation Library 1 (HGL1) against asexual blood stage Plasmodium falciparum ,using a nano luciferase reporter read-out” (2022).
About 540 (0.36%) of roughly 150,000 compounds showed an effect of 50% or more. The list shows a part of the results.

Test system: Plasmodium falciparum
Test: Primary screen in NF54 nanoGlo assay, in single point, at 2uM, 72h; a lower Z score goes with more inhibition
Type: functional, Erythrocyte
Conditions: timepoint 72 hour

SMILES | % Inhibition | Z score
Cc1noc(OCc2ccc(Cl)s2)n1 | -1% | 0.16
Cc1cnc(CN2C[C@]3(CCCN(C(=O)CCC4CC4)C3)CCC2=O)cn1 | -6% | 0.88
Cc1cccc(=O)n1CCC(=O)NC[C@H]1CCOc2ccccc2C1 | 0% | 0.04
Cc1ccc(-c2nc3n(CC(=O)N4CCOCC4)c(C)c(Cc4ccccc4)c(=O)n3n2)cc1 | 5% | -0.6
O=S(=O)(C[C@H]1CCCOC1)NCc1ccccc1-c1ncc[nH]1 | -5% | 0.8
Cc1ccccc1C(CC(=O)NCc1ccccc1)c1cnc2n1C(C)CCC2 (centres undefined) | -4% | 0.66
CC(C)NC(=O)N(Cc1ccc(F)cc1)Cc1ccccc1OS(=O)(=O)c1ccc(F)cc1 | -10% | 1.18
CN1CCN(C(=O)c2cncc(NC[C@@H]3COc4ccccc4C3)n2)CC1 | -17% | 2.54
CCc1nnc(N2CCC[C@H](c3nnc4ccccn34)C2)o1 | -1% | 0.09
COc1ccccc1CNC(=O)CN1CC[C@@]2(CCCNC2=O)C1 | -2% | 0.28
O=C(CNC(=O)c1ccc(Br)cc1Cl)Nc1cn[nH]c1 | 4% | -0.68
O=C(NCc1ccc(Cl)cc1)c1nnsc1NC(=O)N1CCOCC1 | -2% | 0.28
Cc1cc(C(=O)Nc2cccc3ccccc23)co1 | 1% | -0.17
O=C(NCc1cc2n(n1)CCCO2)[C@H]1C[C@@H]1C(F)F | 9% | -1.02
Cc1cccc(NC(=O)c2cccc(OCc3cn4cccc(C)c4n3)c2)n1 | -24% | 2.07
CCn1cc(S(=O)(=O)N2CC(n3cnnc3[C@@H]3CCCO3)C2)cn1 | -8% | 1.22
Cc1nnc(CC(=O)N[C@H]2CC[C@H](CO)CC2)s1 | -7% | 1.12
OC[C@@]12CCN(Cc3cccc(Cl)c3)C[C@@H]1CN(Cc1ccccc1)C2 | -16% | 1.91
COc1ccc(-c2cc(C(=O)N[C@H]3CCCc4ccccc43)n(C)n2)c(OC)c1 | -5% | 0.82
Cc1nc2ccccc2c(N2CCN3C(=O)NC[C@H]3C2)c1C | -9% | 0.82
CN(C(=O)c1cccc(OCC(F)F)n1)c1ccc(-c2ccccc2)nn1 | -4% | 0.35

SMILES | % Inhibition | Z score
COc1ccc(Oc2nccc(-c3ccc(Cl)cc3)c2C#N)cc1 | -4% | 0.61
CCCOc1ccc(-c2nn(-c3ccccc3)cc2CNS(=O)(=O)c2ccc(OC)cc2)cc1 | -2% | 0.24
CN(Cc1ncccc1Cl)C[C@@H]1C[C@H](F)CN1c1ccnc(N(C)C)n1 | -4% | 0.63
CCCCn1ncc(NC(=O)[C@@](C)(O)C2CCC2)c1CC | -9% | 1.26
CCc1noc(C)c1CNC(=O)C[C@H]1CCC(=O)N1C | -6% | 0.95
Nc1cc(C(=O)NC[C@H]2CC[C@H](CO)CC2)n[nH]1 | -11% | 1.7
O=S(=O)(Cc1ccccc1)N1CCC(OCc2noc([C@@H]3CCCO3)n2)CC1 | -9% | 1.25
Cc1nn(C)cc1NC(=O)N[C@H]1CCCOCC1 | -6% | 0.98
N#Cc1ccc(N2CC3CC4CC3C2C4O)nc1 (centres undefined) | 5% | -0.82
Cc1c(C)[n+]([O-])c([C@@H](c2ccc3nccnc3c2)C2C(=O)OC(C)(C)OC2=O)n1C | -8% | 0.95
COc1ccc(-c2n[nH]c(=O)c3c2CCCC3)cc1S(=O)(=O)Nc1cc(C)ccc1C | -22% | 3.01
c1ccc2cc(Cn3c(Cc4cccc5ccccc45)nc4ccccc43)ccc2c1 | -9% | 1.48
COc1cc(CNCc2cccs2)ccc1OCc1ccc(C)cc1 | -5% | 0.63
O=C(c1cccc(Cl)c1)N1CCC[C@H]1c1nc(-c2ccccc2)no1 | -13% | 1.52
Cc1cc(Cl)cc(CN[C@H]2CCO[C@@H]2c2cccnc2)c1 | 0% | 0.08
CN1CCOC[C@@H](CNc2cccc(C#N)n2)C1 | 2% | -0.27
Cc1ccc([C@@H]2CCCN2Cc2nc3c(=O)n(C)c(=O)n(C)c3[nH]2)o1 | 1% | -0.11
COC(=O)N[C@@H](C)C(=O)NCc1cccc2[nH]ccc12 | -18% | 1.94
COc1ccccc1C(=O)N1CCOCC2(CCCC2)C1 | -14% | 2.14
O=C(CCCn1nc(-c2ccccc2)c2cc(Cl)ccc21)NCCCN1CCCC1 | 3% | -0.56
COc1c(F)c(F)cc(C(=O)NCc2cncc(N3CCCC3=O)c2)c1F | -2% | 0.33
